The whole screen tested about 220,000 compounds, of which about 5,700 (2.6%) were called active. Inconclusive results, whose numbers are uncertain, are shown with a selection of clear calls. Calls follow the shape of the dose curve; as a rule, active = well fitted inhibition curve with a large enough effect; inconclusive = small, poorly fitted or top-dose-only effect; inactive = no such curve, though single readings can be large or run the other way. Where the call is inconclusive, the potency comes from a doubtful curve fit.
What follows are molecules tested against Lysine-specific demethylase 5B (Homo sapiens) (UniProt Q9UGL1) (assay: Primary screen for KDM5B Histone Demethylases FDH-coupled qHTS). Conditions: FDH-coupled NADH fluorescence (FDH is formaldehyde dehydrogenase); activity change, negative = inhibition: at 57.7 µM (top of the series) unless noted.
UniProt Q9UGL1, sequence (Q9UGL1 whole entry, looked up): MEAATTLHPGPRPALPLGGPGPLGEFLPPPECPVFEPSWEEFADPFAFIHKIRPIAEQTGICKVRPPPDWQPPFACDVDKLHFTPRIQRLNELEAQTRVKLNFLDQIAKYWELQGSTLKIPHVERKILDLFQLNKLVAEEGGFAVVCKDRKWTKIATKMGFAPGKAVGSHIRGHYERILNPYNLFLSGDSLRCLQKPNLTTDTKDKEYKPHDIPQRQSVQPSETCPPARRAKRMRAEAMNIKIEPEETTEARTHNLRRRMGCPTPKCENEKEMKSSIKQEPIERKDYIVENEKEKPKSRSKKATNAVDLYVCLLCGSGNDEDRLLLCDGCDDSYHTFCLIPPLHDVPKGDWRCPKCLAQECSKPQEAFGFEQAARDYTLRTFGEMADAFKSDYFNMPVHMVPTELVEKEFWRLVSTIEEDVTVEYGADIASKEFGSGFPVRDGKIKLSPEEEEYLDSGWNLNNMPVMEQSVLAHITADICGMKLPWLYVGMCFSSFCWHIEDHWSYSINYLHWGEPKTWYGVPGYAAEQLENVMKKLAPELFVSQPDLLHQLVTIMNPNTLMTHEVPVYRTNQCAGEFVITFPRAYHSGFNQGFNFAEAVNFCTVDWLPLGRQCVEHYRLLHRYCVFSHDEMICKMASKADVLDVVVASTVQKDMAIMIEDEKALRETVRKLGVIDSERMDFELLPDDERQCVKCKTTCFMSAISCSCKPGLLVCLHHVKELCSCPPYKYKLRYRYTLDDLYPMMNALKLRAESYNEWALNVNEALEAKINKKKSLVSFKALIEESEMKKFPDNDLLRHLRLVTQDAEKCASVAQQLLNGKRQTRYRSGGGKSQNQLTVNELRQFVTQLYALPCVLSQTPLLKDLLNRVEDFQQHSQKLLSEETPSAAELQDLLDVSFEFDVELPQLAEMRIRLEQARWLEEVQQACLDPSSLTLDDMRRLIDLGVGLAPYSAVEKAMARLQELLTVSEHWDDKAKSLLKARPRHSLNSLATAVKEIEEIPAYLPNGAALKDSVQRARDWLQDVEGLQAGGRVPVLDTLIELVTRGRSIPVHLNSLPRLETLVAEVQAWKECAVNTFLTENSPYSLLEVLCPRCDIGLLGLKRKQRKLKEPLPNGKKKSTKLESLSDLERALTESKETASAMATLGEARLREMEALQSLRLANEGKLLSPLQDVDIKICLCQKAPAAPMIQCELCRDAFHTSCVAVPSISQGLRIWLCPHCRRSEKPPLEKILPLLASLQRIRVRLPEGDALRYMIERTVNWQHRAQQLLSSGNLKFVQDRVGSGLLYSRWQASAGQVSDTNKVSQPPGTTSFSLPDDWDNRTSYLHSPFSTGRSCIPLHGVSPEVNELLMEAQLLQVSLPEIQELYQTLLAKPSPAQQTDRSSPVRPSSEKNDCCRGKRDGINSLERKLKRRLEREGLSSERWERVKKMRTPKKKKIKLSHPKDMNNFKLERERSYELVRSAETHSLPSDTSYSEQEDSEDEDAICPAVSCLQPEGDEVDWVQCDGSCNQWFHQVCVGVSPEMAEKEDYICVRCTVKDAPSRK
Outline: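 Here, H3K4me3 peptide (12.5 µM in substrate mix) is demethylated by KDM5BΔAP, 200 nM final, after 10 min compound exposure. Formaldehyde product is coupled through FDH (0.25 U/mL in mix) to NADH fluorescence; 30-min ΔRFU feeds dose-response curves.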
For `COc1ccc(C(=O)Nc2ccccc2-c2nc3ccccc3s2)c(OC)c1`, the Potency was inconclusive: 39.8 µM [inhibitor, partial curve, poor fit]. In the case of `Cn1nccc1CN1CCC2(C1)C(=O)N(c1ccccc1)c1ccccc12` (centres undefined), the Potency is reported as inconclusive: 56.2 µM [inhibitor, partial curve, poor fit]. For `Clc1ccc(CN2CCOC[C@H](Oc3cccnc3)C2)cc1`, the Potency was “inactive”. With `CCOc1cc(NC(=O)c2ccc(Cn3cc(Cl)cn3)cc2)ccc1OC(F)F` the Potency was “inactive”. With `COc1ccc(Oc2nc3c(C)cccn3c(=O)c2/C=C(\C#N)c2nc3ccccc3[nH]2)cc1` the Potency was inconclusive: 28.2 µM [inhibitor, partial curve, poor fit]. `Oc1ccc2oc3c(c2c1C=NCc1ccncc1)CCCC3` was tested, and the Potency was inconclusive: 22.4 µM [inhibitor, partial curve, poor fit]. With `Cc1[nH]c2ccccc2c1/C=C/C(=O)c1ccc(Br)cc1` the Potency was “inactive”. In the case of `O=C(NC1CCN(c2cc(-c3ccc(F)cc3)[nH]n2)C1)c1cccc(F)c1` (centres undefined), the Potency is reported as inconclusive: 7.08 µM [inhibitor, partial curve]. For `CN(C)c1ccc(NC(=O)c2ccc(C(C)(C)C)cc2)cc1`, the Potency was “inactive”. `Cc1nc2nc(SCC(=O)N(Cc3ccccc3)C(C)C)nn2c(C)c1Cc1ccccc1Cl` was tested, and the Potency was inconclusive: 39.8 µM [inhibitor, single point]. With `Cc1cc2cc(-c3c(C)noc3C)nc(Nc3ccccn3)c2o1` the Potency was inconclusive: 39.8 µM [inhibitor, single point]. For `Cc1ccc(C(CCNCCN(C)C)C2CCOC(C)(C)C2)cc1` (centres undefined), the Potency was inconclusive: 39.8 µM [inhibitor, partial curve, poor fit]. For `COc1ccc2c(C)c(CC(=O)NCCCn3ccnc3)c(=O)oc2c1C`, the Potency was inconclusive: 22.4 µM [inhibitor, partial curve, poor fit]. `CCc1ccc(CN(C(=O)c2cc(=O)c3cc(Cl)ccc3o2)C2CCS(=O)(=O)C2)cc1` (centres undefined) was tested, and the Potency was “inactive”. With `C#CCNC(=O)C[C@@H]1c2nc(NC(=O)C(C)(C)C)sc2C[C@@H]2[C@](C)(CO)[C@H](O)CC[C@]21C` the Potency was “inactive”. In the case of `O=C(CSc1cnc2cc(S(=O)(=O)N3CCCCC3)ccc2n1)Nc1ccc(Cl)cc1`, the Potency is reported as “inactive”. With `COc1ccc(CN2CC3(CCN(C(=O)Nc4ccccc4)CC3)C2=O)cc1` the Potency was inconclusive: 20 µM [inhibitor, partial curve, poor fit]. With `COC[C@@H]1CN(C(=O)c2ccc3ccccc3n2)C[C@H]1c1nc(C)no1` the Potency was “inactive”. With `CC(CNc1nc2ccc(Cl)cc2n2cnnc12)c1ccccc1` (centres undefined) the Potency was inconclusive: 31.6 µM [inhibitor, partial curve, poor fit]. In the case of `CC(=O)NC(=S)NNC(=O)c1ccc(C(C)(C)C)cc1`, the Potency is reported as inconclusive: 39.8 µM [inhibitor, single point]. `COc1ccc(CNC(=O)c2nc(S(=O)(=O)Cc3ccccc3)ncc2Cl)cc1` was tested, and the Potency was inconclusive: 25.1 µM [inhibitor, partial curve, poor fit]. `COc1ccc2[nH]c(=O)c(CN(C(=O)c3cccnc3)c3ccc(C)cc3C)cc2c1` was tested, and the Potency was inconclusive: 28.2 µM [inhibitor, partial curve, poor fit]. `Cc1ccsc1C(=O)N(Cc1ccccn1)C1CC1` was tested, and the Potency was “inactive”. In the case of `CC(C)NC(=O)[C@@H]1C[C@H](N)CN1C(=O)c1ccc(-n2cnnn2)cc1`, the Potency is reported as “inactive”. `CCCOc1ccc(C(=O)CCN(C)C)cc1` was tested, and the Potency was inconclusive: 10 µM [inhibitor, partial curve, poor fit]. `CCOC(=O)N1CCN(Cc2nc3cc(NC(=O)c4ccccc4OC)ccc3n2C(C)C)CC1` was tested, and the Potency was inconclusive: 11.2 µM [inhibitor, partial curve, poor fit]. For `O=C(NCc1ccc2c(c1)OCO2)c1nc(-c2ccsc2)c2ccccn12`, the Potency was active: 14.1 µM. With `Cc1cccc(N2CCN(C(=O)c3noc(-c4ccc5c(c4)OCO5)n3)CC2)c1C` the Potency was inconclusive: 22.4 µM [inhibitor, single point]. With `CC(Sc1ncccn1)C(=O)O` (centres undefined) the Potency was “inactive”. In the case of `CC(=O)Nc1ccc(Nc2nc3ccccc3n3cnnc23)cc1`, the Potency is reported as inconclusive: 39.8 µM [inhibitor, single point]. In the case of `COC1CCCOC12CCN(C(=O)CCn1c(C)nc3ccccc31)CC2` (centres undefined), the Potency is reported as “inactive”. `COc1ccc(C2Cn3nnc(-c4nc(C5CC5)no4)c3CO2)cc1` (centres undefined) was tested, and the Potency was “inactive”. In the case of `Cc1nc2ccn(Cc3cccs3)c(=O)c2cc1C(=O)N1CCN(c2ccccc2)CC1`, the Potency is reported as inconclusive: 39.8 µM [inhibitor, single point]. In the case of `O=C(Nc1cccc(Br)c1)c1cc(-c2ccc3c(c2)OCCO3)on1`, the Potency is reported as inconclusive: 35.5 µM [inhibitor, single point]. `O=C(OCc1ccc(Cl)cc1Cl)c1ccccc1Oc1ccccc1` was tested, and the Potency was “inactive”. With `O=C(Nc1cc(F)cc(F)c1)Nc1cccc(-c2ccc(N3CCOCC3)nn2)c1` the Potency was inconclusive: 28.2 µM [inhibitor, single point]. In the case of `COc1cc(OC)c(NC(=O)CCn2ccn3nc4c(c3c2=O)CCCC4)cc1Cl`, the Potency is reported as “inactive”. `Cc1nc2cc(-c3ccccc3)nn2c(C)c1CCC(=O)NCc1cccc(Cl)c1` was tested, and the Potency was inconclusive: 39.8 µM [inhibitor, partial curve, poor fit]. With `O=C1CCC(C(=O)OCC(=O)c2c[nH]c3ccccc23)=NN1` the Potency was “inactive”. For `O=C(OC(C(=O)NC1CC1)c1ccccc1)c1n[nH]c(=O)c2ccccc12` (centres undefined), the Potency was “inactive”. In the case of `O=C(NCc1csc(-c2cnccn2)n1)C1CNCCO1` (centres undefined), the Potency is reported as inconclusive: 28.2 µM [inhibitor, partial curve, poor fit]. With `COc1cc2[nH]c(=O)n(CCCCCC(=O)N3CCN(c4ccc(Cl)cc4)CC3)c(=O)c2cc1OC` the activity change, negative = inhibition was inconclusive: -31.2% [inhibitor]. `O=C(CSc1cn(CC(=O)N2CCCC2)c2ccccc12)Nc1ccccc1C(F)(F)F` was tested, and the Potency was inconclusive: 1.26 µM [inhibitor, partial curve, poor fit]. For `Cc1cccc(NC(=O)C(C#N)=C2CCCC2)c1`, the Potency was “inactive”. `Clc1ccccc1Nc1ncnc2c1nc1n2CCCCC1` was tested, and the Potency was inconclusive: 50.1 µM [inhibitor, single point]. `CCOC(=O)C1=C(C)N=C2SC=C(CC(=O)N3CCCCC3)N2C1c1cccc(OC)c1` (centres undefined) was tested, and the Potency was inconclusive: 20 µM [inhibitor, partial curve]. With `Nc1c(Br)cc2oc(-c3cccc4ccccc34)nc2c1Br` the Potency was “inactive”. With `O=C(CCc1cc(Cl)no1)N(CCS(=O)(=O)N1CCOCC1)Cc1ccccn1` the Potency was “inactive”. In the case of `CC(C)C(=O)Nc1ccc(Br)cc1Br`, the Potency is reported as “inactive”. With `Cc1nc(CN2CCN(Cc3cc4n(n3)CCNC4)CC2)cs1` the Potency was inconclusive: 11.2 µM [inhibitor, partial curve, poor fit]. In the case of `COC(=O)c1ccc(/C=C(/C#N)C(=O)c2ccsc2)cc1`, the Potency is reported as inconclusive: 39.8 µM [inhibitor, single point]. For `O=c1[nH]c2cc3c(cc2c(=O)n1CCc1nc(-c2cccc(C(F)(F)F)c2)no1)OCO3`, the Potency was “inactive”. In the case of `FC(F)(F)c1cc(-c2ccccc2)nc(SCc2ccncc2)n1`, the Potency is reported as “inactive”. `Cc1cccc(NS(=O)(=O)c2ccc3nc(-c4ccccc4)[nH]c3c2)c1C` was tested, and the Potency was inconclusive: 1.58 µM [inhibitor, full curve, poor fit]. With `Cn1c([C@H]2CCN(Cc3ncc[nH]3)C2)nc2ccccc21` the Potency was active: 35.5 µM. In the case of `O=C(c1cccnc1)N1CCC(Nc2cccnc2)C1` (centres undefined), the Potency is reported as inconclusive: 6.31 µM [inhibitor, partial curve]. With `N#Cc1ccc(CN2C[C@@H](COCC(N)=O)[C@H](c3ccncc3)C2)cc1` the Potency was inconclusive: 22.4 µM [inhibitor, single point]. For `Cc1cccc(Cn2cccc2CNS(=O)(=O)c2ccc(C)c(C)c2)c1`, the Potency was inconclusive: 25.1 µM [inhibitor, partial curve, poor fit]. For `Cc1cc(F)ccc1-c1[nH]nc2ncc(-c3ccccc3)nc12`, the Potency was inconclusive: 31.6 µM [inhibitor, single point]. `CCCCN(Cc1ccco1)C(=O)Cn1ncc2c([nH]c3ccccc32)c1=O` was tested, and the Potency was inconclusive: 15.8 µM [inhibitor, partial curve, poor fit]. `CN1CCSc2ccc(C(=O)NCc3ccccc3)cc21` was tested, and the Potency was inconclusive: 35.5 µM [inhibitor, partial curve, poor fit]. In the case of `CN1CC(=O)N(C2CCCC2)Cc2c(NC3CCNCC3)ncnc21`, the Potency is reported as inconclusive: 63.1 µM [inhibitor, partial curve, poor fit]. In the case of `COc1ccc(CC(=O)NCc2ccc3c(c2)CCN3C(=O)c2cccc(C)c2)cc1`, the Potency is reported as inconclusive: 17.8 µM [inhibitor, partial curve, poor fit]. With `O=C(C[C@@H]1O[C@H](CNC(=O)Nc2cccc(F)c2)[C@@H](O)[C@H]1O)Nc1ccccc1` the Potency was inconclusive: 25.1 µM [inhibitor, partial curve, poor fit].
Also: nearly all actives have a fitted effect of over 70% in size.
For activity change, negative = inhibition in this document: 0% is about no effect.
Potency is read from the fitted curve at half-maximal effect; tags tell the direction and shape of the fitted curve.
